Measurements reported in US8044100B2, “Methods and compositions for treating amyloid-related diseases” (Bellus Health Inc., priority 2004, dated 2011).
Some of these results come from one statement about several compounds together.

target: Aβ40 (Homo sapiens, UniProt P05067); assay: Mass spectrometry (MS) assay for binding to soluble Aβ40; details: 150 μM test compound and 30 μM solubilized Aβ40, pH 7.4
Sequence (P05067 672-711 limits assumed): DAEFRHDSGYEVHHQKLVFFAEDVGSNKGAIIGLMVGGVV

Structure (SMILES)	Aβ binding (%)
CCC1(NCCCS(=O)(=O)O)CCCC1 [NN, 3-[(1-ethylcyclopentyl)amino]-1-propanesulfonic acid]	40-69%
CCC1(NCCCS(=O)(=O)O)CCCCCC1 [NO, 3-[(1-ethylcycloheptyl)amino]-1-propanesulfonic acid]	40-69%
C[C@H](NCCCS(=O)(=O)O)C(C)(C)C [NQ, 3-{[(1S)-1,2,2-trimethylpropyl]amino}-1-propanesulfonic acid]	15-39%
CCC1(NCCCS(=O)(=O)O)CCCCC1 [NR, 3-[(1-ethylcyclohexyl)amino]-1-propanesulfonic acid]	40-69%
CC(C)(Cc1ccc(O)cc1)NCCCS(=O)(=O)O [NS, 3-{[1-(4-hydroxyphenyl)-2-methyl]-2-propylamine}-1-propanesulfonic acid]	15-39%
CC(C)(CCCO)NCCCS(=O)(=O)O [NT, 3-[(5-hydroxy-1,1-dimethylbutyl)amino]-1-propanesulfonic acid]	15-39%
C[C@H](NCCCS(=O)(=O)O)c1ccc(Cl)cc1 [NU, 3-{[(1S)-1-(4-chlorophenyl)ethyl]amino}-1-propanesulfonic acid]	40-69%
C[C@@H](NCCCS(=O)(=O)O)c1ccc(Cl)cc1 [NV, 3-{[(1R)-1-(4-chlorophenyl)ethyl]amino}-1-propanesulfonic acid]	40-69%
Cc1ccc(C(O)C2(NCCCS(=O)(=O)O)CCCCC2)cc1 (stereo not shown) [NW, 3-({1-[hydroxy(4-methylphenyl)methyl]cyclohexyl}amino)-1-propanesulfonic acid]	15-39%
Cc1ccc([C@H](C)NCCCS(=O)(=O)O)cc1 [NX, 3-{[(1S)-1-(4-methylphenyl)ethyl]amino}propane-1-sulfonic acid]	15-39%
Cc1ccc([C@@H](C)NCCCS(=O)(=O)O)cc1 [NY, 3-{[(1R)-1-(4-methylphenyl)ethyl]amino}propane-1-sulfonic acid]	15-39%
O=S(=O)(O)CCCNCC1CC1 [NZ, 3-[(cyclopropylmethyl)amino]-1-propanesulfonic acid]	40-69%
COc1cccc([C@@H](C)NCCCS(=O)(=O)O)c1 [OA, 3-{[(1R)-1-(3-methoxyphenyl)ethyl]amino}propane-1-sulfonic acid]	40-69%
CC[C@H](NCCCS(=O)(=O)O)c1ccccc1 [OB, 3-{[(1S)-1-phenylpropyl]amino}-1-propanesulfonic acid]	40-69%
CSCCC(CO)NCCCS(=O)(=O)O (stereo not shown) [OC]	40-69%
C[C@@H](NCCCS(=O)(=O)O)c1cccc2ccccc12 [OD, 3-{[(1R)-(1-naphthyl)ethyl]amino}-1-propanesulfonic acid]	40-69%
C[C@H](NCCCS(=O)(=O)O)c1cccc2ccccc12 [OE, 3-{[(1S)-(1-naphthyl)ethyl]amino}-1-propanesulfonic acid]	≧70%
COCCCC(C)(C)NCCCS(=O)(=O)O [OF, 3-{[4-methoxy-1,1-dimethylbutyl]amino}-1-propanesulfonic acid]	15-39%
CC(=O)CC(C)(C)NCCCS(=O)(=O)O [OG, 3-[(1,1-dimethyl-3-oxobutyl)amino]-1-propanesulfonic acid]	15-39%
CC(C)(CCCOCc1ccccc1)NCCCS(=O)(=O)O [OH, 3-{[4-(benzyloxy)-1,1-dimethylbutyl]amino}-1-propanesulfonic acid]	15-39%
O=S(=O)(O)CC1CCCNC1 (stereo not shown) [OI, 3-piperidinylmethanesulfonic acid]	40-69%
O=S(=O)(O)CCCN1CCCC(CO)C1 (stereo not shown) [OJ, 3-[3-(hydroxymethyl)piperidin-1-yl]-1-propanesulfonic acid]	15-39%
O=S(=O)(O)CCCN1CCCCC1CCO (stereo not shown) [OK, 3-[2-(2-hydroxyethyl)piperidin-1-yl]-1-propanesulfonic acid]	15-39%
C[C@H](NCCCS(=O)(=O)O)c1ccc(Br)cc1 [OL, (S)-3-[1-(4-bromophenyl)ethylamino]-1-propanesulfonic acid]	40-69%
C[C@H](NCCCS(=O)(=O)O)c1ccc([N+](=O)[O-])cc1 [OM, (S)-3-[1-(4-nitrophenyl)ethylamino]-1-propanesulfonic acid]	≧70%
C[C@@H](NCCCS(=O)(=O)O)c1ccc2ccccc2c1 [OO, 3-{[(1R)-1-(2-naphthyl)ethyl]amino}-1-propanesulfonic acid]	40-69%

same assay, conditions: @ 200 μM test compound and 20 μM solubilized Aβ40, pH 7.4; class limits; compounds tested at 200 or 400 μM

Structure (SMILES)	Aβ binding (%)
O=C(O)[C@H](Cc1ccccc1)NCCCS(=O)(=O)O [GR, (2S)-3-phenyl-2-[(3-sulfopropyl)amino]propanoic acid]	20-39% @ 400 μM
C=CCOC(=O)[C@@H](NCCCS(=O)(=O)O)C(C)C [GS, 3-{[(1S)-1-isopropyl-2-oxopent-4-enyl]amino}-1-propanesulfonic acid]	20-44% @ 200 μM
CC(C)C[C@H](NCCCS(=O)(=O)O)C(N)=O [GT, 3-{[(1S)-1-(aminocarbonyl)-3-methylbutyl]amino}-1-propanesulfonic acid]	20-39% @ 400 μM
CC(C)C[C@H](NCCCS(=O)(=O)O)C(=O)OCc1ccccc1 [GU, 3-{[(1S)-1-(benzyloxycarbonyl)-3-methylbutyl]amino}-1-propanesulfonic acid]	20-44% @ 200 μM
O=S(=O)(O)CCCN1CCC(O)(c2ccc(Br)cc2)CC1 [G]	20-44% @ 200 μM
CCC(C)[C@H](NCCCS(=O)(=O)O)C(=O)O (stereo partly drawn) [HA, 3-{[(1S)-1-(oxycarbonyl)-3-methylbutyl]amino}-1-propanesulfonic acid]	20-39% @ 400 μM
NC(=O)[C@H](Cc1ccccc1)NCCCS(=O)(=O)O [HB, 3-{[(1S)-1-carbamoyl-2-phenylethyl]amino}-1-propanesulfonic acid]	20-39% @ 400 μM
COC(=O)[C@@H](CC(C)C)NCCCS(=O)(=O)O [HC, 3-{[(1R)-1-(methoxycarbonyl)-3-methylbutyl]amino}-1-propanesulfonic acid]	20-44% @ 200 μM
CC(C)[C@@H](NCCCS(=O)(=O)O)C(N)=O [HD, 3-{[(1R)-1-(aminocarbonyl)-2-methylpropyl]amino}-1-propanesulfonic acid]	20-39% @ 400 μM
NC(=O)[C@@H](Cc1ccccc1)NCCCS(=O)(=O)O [HE, 3-{[(1R)-1-carbamoyl-2-phenylethyl]amino}-1-propanesulfonic acid]	20-39% @ 400 μM
CCC(C)[C@H](NCCCS(=O)(=O)O)C(=O)OCc1ccccc1 (stereo partly drawn) [HF, 3-({(1S)-1-[(benzyloxy)carbonyl]-2-methylbutyl}amino)-1-propanesulfonic acid]	20-39% @ 400 μM
CC(C)C[C@@H](NCCCS(=O)(=O)O)C(N)=O [HG, 3-{[(1R)-1-(aminocarbonyl)-3-methylbutyl]amino}-1-propanesulfonic acid]	20-44% @ 200 μM
CC(CCCC(C)(C)O)NCCCS(=O)(=O)O (stereo not shown) [HJ, 3-[(5-hydroxy-1,5-dimethylhexyl)amino]-1-propanesulfonic acid]	20-39% @ 400 μM
COC(=O)[C@@H](C)NCCCS(=O)(=O)O [HK, 3-{[(1R)-2-methoxy-1-methyl-2-oxoethyl]amino}-1-propanesulfonic acid]	20-39% @ 400 μM
O=S(=O)(O)CCCN1CCC(O)(c2ccc(Cl)cc2)CC1 [H]	20-44% @ 200 μM
O=S(=O)(O)CCCN1CC=C(c2ccc(Cl)cc2)CC1 [J]	20-44% @ 200 μM
O=S(=O)(O)CCCN1CCN(c2ccccc2)CC1 [K]	20-39% @ 400 μM
O=S(=O)(O)CCCN1CCN(c2ccc(Cl)cc2)CC1 [L]	20-44% @ 200 μM
O=S(=O)(O)CCCN1CCN(c2ccccc2F)CC1 [M]	20-39% @ 400 μM
COc1cccc(C(O)C(C)(C)NCCCS(=O)(=O)O)c1 (stereo not shown) [NG, 3-({2-hydroxy-1,1-dimethyl-2-(3-methoxyphenyl)ethyl]amino)-1-propanesulfonic acid]	30-69% @ 200 μM
Cc1ccc(CC2(NCCCS(=O)(=O)O)CCCCC2)cc1 [NH, 3-{[1-(4-methylbenzyl)cyclohexyl]amino}-1-propane-1-sulfonic acid]	20-44% @ 200 μM
COc1ccc(CC(C)(C)NCCCS(=O)(=O)O)cc1 [NI, 3-{[2-(4-methoxyphenyl)-1,1-dimethylethyl]amino}-1-propanesulfonic acid]	20-44% @ 200 μM
Cc1ccc(C(O)C(C)(C)NCCCS(=O)(=O)O)cc1 (stereo not shown) [NJ, 3-{[2-hydroxy-1,1-dimethyl-2-(4-methylphenyl)ethyl]amino}-1-propanesulfonic acid]	60-100% @ 200 μM
Cc1ccc(CC(C)(C)NCCCS(=O)(=O)O)cc1 [NK, 3-{[1,1-dimethyl-2-(4-methylphenyl)ethyl]amino}-1-propanesulfonic acid]	20-44% @ 200 μM
O=[N+]([O-])c1ccc(N2CCN(CCCS(=O)(=O)O)CC2)cc1 [N]	20-39% @ 400 μM

same assay, conditions: @ 400 μM test compound and 40 μM solubilized Aβ40, pH 7.4; class limits; compounds tested at 200 or 400 μM

Structure (SMILES)	Aβ binding (%)
O=C(O)[C@H](Cc1ccccc1)NCCCS(=O)(=O)O [GR, (2S)-3-phenyl-2-[(3-sulfopropyl)amino]propanoic acid]	20-39% @ 400 μM
C=CCOC(=O)[C@@H](NCCCS(=O)(=O)O)C(C)C [GS, 3-{[(1S)-1-isopropyl-2-oxopent-4-enyl]amino}-1-propanesulfonic acid]	45-59% @ 400 μM;
CC(C)C[C@H](NCCCS(=O)(=O)O)C(N)=O [GT, 3-{[(1S)-1-(aminocarbonyl)-3-methylbutyl]amino}-1-propanesulfonic acid]	20-39% @ 400 μM
CC(C)C[C@H](NCCCS(=O)(=O)O)C(=O)OCc1ccccc1 [GU, 3-{[(1S)-1-(benzyloxycarbonyl)-3-methylbutyl]amino}-1-propanesulfonic acid]	45-59% @ 400 μM;
O=S(=O)(O)CCCN1CCC(O)(c2ccc(Br)cc2)CC1 [G]	45-59% @ 400 μM;
CCC(C)[C@H](NCCCS(=O)(=O)O)C(=O)O (stereo partly drawn) [HA, 3-{[(1S)-1-(oxycarbonyl)-3-methylbutyl]amino}-1-propanesulfonic acid]	20-39% @ 400 μM
NC(=O)[C@H](Cc1ccccc1)NCCCS(=O)(=O)O [HB, 3-{[(1S)-1-carbamoyl-2-phenylethyl]amino}-1-propanesulfonic acid]	20-39% @ 400 μM
COC(=O)[C@@H](CC(C)C)NCCCS(=O)(=O)O [HC, 3-{[(1R)-1-(methoxycarbonyl)-3-methylbutyl]amino}-1-propanesulfonic acid]	45-59% @ 400 μM;
CC(C)[C@@H](NCCCS(=O)(=O)O)C(N)=O [HD, 3-{[(1R)-1-(aminocarbonyl)-2-methylpropyl]amino}-1-propanesulfonic acid]	20-39% @ 400 μM
NC(=O)[C@@H](Cc1ccccc1)NCCCS(=O)(=O)O [HE, 3-{[(1R)-1-carbamoyl-2-phenylethyl]amino}-1-propanesulfonic acid]	20-39% @ 400 μM
CCC(C)[C@H](NCCCS(=O)(=O)O)C(=O)OCc1ccccc1 (stereo partly drawn) [HF, 3-({(1S)-1-[(benzyloxy)carbonyl]-2-methylbutyl}amino)-1-propanesulfonic acid]	20-39% @ 400 μM
CC(C)C[C@@H](NCCCS(=O)(=O)O)C(N)=O [HG, 3-{[(1R)-1-(aminocarbonyl)-3-methylbutyl]amino}-1-propanesulfonic acid]	45-59% @ 400 μM;
CC(CCCC(C)(C)O)NCCCS(=O)(=O)O (stereo not shown) [HJ, 3-[(5-hydroxy-1,5-dimethylhexyl)amino]-1-propanesulfonic acid]	20-39% @ 400 μM
COC(=O)[C@@H](C)NCCCS(=O)(=O)O [HK, 3-{[(1R)-2-methoxy-1-methyl-2-oxoethyl]amino}-1-propanesulfonic acid]	20-39% @ 400 μM
O=S(=O)(O)CCCN1CCC(O)(c2ccc(Cl)cc2)CC1 [H]	45-59% @ 400 μM;
O=S(=O)(O)CCCN1CC=C(c2ccc(Cl)cc2)CC1 [J]	45-59% @ 400 μM;
O=S(=O)(O)CCCN1CCN(c2ccccc2)CC1 [K]	20-39% @ 400 μM
O=S(=O)(O)CCCN1CCN(c2ccc(Cl)cc2)CC1 [L]	45-59% @ 400 μM;
O=S(=O)(O)CCCN1CCN(c2ccccc2F)CC1 [M]	20-39% @ 400 μM
COc1cccc(C(O)C(C)(C)NCCCS(=O)(=O)O)c1 (stereo not shown) [NG, 3-({2-hydroxy-1,1-dimethyl-2-(3-methoxyphenyl)ethyl]amino)-1-propanesulfonic acid]	70-89% @ 400 μM;
Cc1ccc(CC2(NCCCS(=O)(=O)O)CCCCC2)cc1 [NH, 3-{[1-(4-methylbenzyl)cyclohexyl]amino}-1-propane-1-sulfonic acid]	45-59% @ 400 μM;
COc1ccc(CC(C)(C)NCCCS(=O)(=O)O)cc1 [NI, 3-{[2-(4-methoxyphenyl)-1,1-dimethylethyl]amino}-1-propanesulfonic acid]	45-59% @ 400 μM;
Cc1ccc(C(O)C(C)(C)NCCCS(=O)(=O)O)cc1 (stereo not shown) [NJ, 3-{[2-hydroxy-1,1-dimethyl-2-(4-methylphenyl)ethyl]amino}-1-propanesulfonic acid]	90-100% @ 400 μM;
Cc1ccc(CC(C)(C)NCCCS(=O)(=O)O)cc1 [NK, 3-{[1,1-dimethyl-2-(4-methylphenyl)ethyl]amino}-1-propanesulfonic acid]	45-59% @ 400 μM;
O=[N+]([O-])c1ccc(N2CCN(CCCS(=O)(=O)O)CC2)cc1 [N]	20-39% @ 400 μM
